Values marked as one replicate rest on one cluster of the flow cell; about a third of the high ones do not repeat.
Tested on: ATP
Assay: switch fluorescence ratio, 500 uM ATP over buffer (Cy3 cluster intensity, sum of 5 cycles each) (fold (ratio)); higher = stronger signal-on switching upon ATP binding; sequences stand for … in TCGTCGGCAGCGTCAGATGTGTATAAGAGACAGTTTTTTTTTTTTTTTTTTTTTTTTT…TC
Settings: aptamer strand: ATP DNA aptamer (quencher-CACCTGGGGGAGTATTGCGGAGGAAGG + anchor), 100 nM annealed; ATP concentration: 500 uM; one replicate
Outline: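 Cy3-labelled switching-strand clusters on a modified Illumina MiSeq flow-cell were annealed to 100 nM quencher-labelled ATP aptamer and imaged first in selection buffer, then after 15 min with 500 uM ATP at 22 °C. NaOH stripping and re-annealing separated each of five buffer/ATP cycles, and clusters outside 100-1000 RFU were excluded. The fluorescence ratio sums target-cycle Cy3 intensity over buffer-cycle Cy3 intensity per cluster and averages it per switch-domain sequence.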
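Also: ATP exposure 15 min at 22 °C before imaging.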

Sequence	switch fluorescence ratio
TCACATTTGC	0.974
AGCATGTAAG	1.02
CTAAGGACTG	1.12
AACGTGAGTT	1.02
CGTCTAAACC	1.07
GAGCAAACGG	1.21
TGTTATGTT	1.05
CTACCACTCC	1.52
TAACTTGTAG	0.981
TTCTGTCTAG	1.01
ATTGAATGCA	1.01
GAAAGATCGG	1.07
AAAAAGATGT	0.948
GAGTCAAGAG	1.12
TCGTAAGTCA	1.01
ATTTTCGAGG	0.972
TACGCGAATC	1.29
GCGATAGATC	1.01
AGGTACTGGT	0.969
AAACAGTACA	1.16
GGTTTTAAGC	0.976
ATCGATTCGG	1.02
TAGCTCACAT	1.01

Sequence	switch fluorescence ratio
TCTTGTGCTG	1.01
TTGCGGACAG	1.03
AAACACGAAG	1.02
CAGCTGAACC	0.967
TCTCTGCTGA	1.81
GCTTTCTGT	0.993
GTGATGAAGG	1.01
AGTAAGAGGT	0.954
CGTAGAATAG	1.06
TAGAGCTTGA	0.931
CCCTAGTCAC	1.17
AAGCCCAATT	0.965
TTTCCCGAT	1.37
AAAATGTGCC	0.995
GGTAGCTAGG	0.967
ACTGGGTAAC	0.974
TTTGGG	1
CTCATGTTTG	0.934
ACGTAAGCGG	0.999
CTTGGAAAGA	0.96
GAGTTAAGGT	0.962
CCTGCTGACG	1.19
CCAGGACACG	1.02

Sequence	switch fluorescence ratio
CAGAGATAAT	1
ATAGGGGAG	0.969
CGGCCCGAAA	1.03
GCTGCTAGAA	1.02
TCGTAAATAA	1.09
AGTTGAGTGT	0.995
TAGGTGACAG	1
ACTATGCGGT	1.03
GAGTAGGTTG	1
TAGTCTCAGA	1.01
ATTGTCTCCA	0.977
TACATCCT	1.08
GCACTAATAA	1.05
TCTGATGGGC	1.09
GCAGGTGAAA	1.18
AACACCGTGT	1.03
CTGTGTAACA	0.978
CTGCCCTTCA	1.27
TTGCGGCGAA	0.995
ACTGCAGCA	1.09
TAATTTATCT	0.982
GTGTAAGCT	0.974
TTGCGGTGTT	1.04

Sequence	switch fluorescence ratio
AGACTAAAGC	0.993
ACTGTGGCGG	1.03
AGGGGCATCC	1.03
TATTTAGTGC	1.07
AACGAGTAA	0.999
CGTTGCCTA	0.998
TGTTTGCTAT	0.989
TTCTGGGTAG	0.998
ATGCATGTGT	1.07
ATTATTCAGC	1.01
TACATGGTGC	1.23
ATAGGCAAA	0.997
AAATGAATAC	1.14
GTGGGGTTAC	1.04
AAGCCTTTGT	1.02
ACCCCTATAA	1.14
AGTTGATAGC	0.962
AGCAGGCGTG	1.03
ACAAACTATT	1.03
CGATTGCGGC	1.1
ACTCGATTCG	1.02
ATTTGGATAG	1.02
GAGAGTCGTG	1.02

Sequence	switch fluorescence ratio
CATAAATACA	1.05
TAAGAACTGC	1.04
TCCGAAGTCG	1.46
CGTCATACAG	0.997
TCCAGTTG	1.1
CGGGGTATGT	0.943
GGTCTGTGGA	1.01
TCTCTAACTC	1.06
TTGTGTTGCA	0.966
ACCAGCTCAT	0.992
AGTATATAA	1.03
CTCGCGAAAT	1.34
GGCTTAACAG	1.01
ATTCAGACTT	1.01
TTAAGATGAC	1.01
TGTGTCCCGA	0.986
TATGGAACGT	1.05
GGAGTTAGTT	0.99
GAATGAGACG	0.993
CCTGACCCAG	1.11
TTCCCCTCTG	1.1
TCGTCGATAT	1.17
CGTGGTACGA	1.08

Sequence	switch fluorescence ratio
ATACTGATGC	1.08
TGTTGGAAGC	0.992
TTGCTCATGT	0.965
TTTCACTGA	1.04
ATCTATATGC	1.03
CCGAGAGGCA	1.27
GATCAACTCT	1.02
ATCTTTTGGC	0.983
CGCGCGCCGT	1.02
TGTGGATTTT	0.993
CTCGTAGTCA	1.03
CATTAGAGC	1.04
TGCTTTCTGT	0.993
CTCTAATGTT	1
TGGGCCGGAC	0.959
TCAGGATAT	1.14
CCAGGGGATT	1.14
GGAGTTCCGA	0.967
AATAAAAGG	0.981
ATTGTAAACG	0.974
CGGAGATTTG	0.975
AACGAGTTCC	1.04
AGTCTAACGA	1

Sequence	switch fluorescence ratio
GGGCTCTGAT	0.979
CAGTTCGCTG	0.99
GGCGTGGGGC	1.05
AATTAGGTTA	1.06
CTGGTTGGAA	1.03
CAACTGTAGT	1.01
CTATTTTTTG	0.976
TATTCTCCCA	1.02
CCGGACGG	1
ATCGTTCATC	1.04
TTTAGTGACC	1.02
TTAGTGTTAG	1
GGGGATTGT	0.976
CTTTTATGGC	1.05
ACAGATATTG	1.02
ATGAACAACA	1.06
CCATGAGTTG	0.996
TCACAAGGAC	1.06
ACAGAAACGG	1.05
ATCCCGTGCA	1.01

Reference: the supplement of paper PMC10126150
